Measured values reported in the RNAGym collection of RNA variant scans (doi:10.7554/elife.90254).
Read counts are not given, so values of variants with three or more changes are uncertain.

B1: LINE1-mini (parent)
chain: GGCAGAGCUCAACACAGCGUGGCAAAGUGGCUGUGGCUAGACUGCC

Variants of: B1
Test: self-cleavage, relative activity (ratio to wild type); higher = more cleavage; in vitro, sequencing; the parent is a self-cleaving ribozyme

Row | Variant | self-cleavage
1 | C8A G19C U20A | 0.08
2 | C8A G40U C46A | 0.03
3 | C8G G22A C37G C42A | 0.07
4 | C8G U20C C31G | 0.01
5 | C8A A24G U34G | 0.26
6 | C8G A12C G19U G21A G36A U38C A41U | 0.01
7 | C8G A12C A26C | 0
8 | C8A U9G G40C C46A | 0.01
9 | C8G U20A G22C | 0.06
10 | C8G G21C G33U | 0.07
11 | C8A C13U A14G U20G U28A C42A | 0.13
12 | C8U A11G U34C | 0.06
13 | C8A G21C A39G | 0.06
14 | C8G A12U C23A C42G | 0.05
15 | C8G G27A C42U C45U | 0.04
16 | C8G G17C C18U U32A G44C | 0.08
17 | C8G G22C G30A U38C | 0
18 | C8A A24G A26U G27C | 0.02
19 | C8G G19U U32G | 0
20 | C8A G17U G21A G22U | 0.17
21 | C8A G17C G19A G27C C45U | 0.06

Row | Variant | self-cleavage
22 | C8A U9G A11G | 0
23 | C8A C10G A11G C46A | 0.02
24 | C8A C13A C18A G29C | 0.09
25 | C8G U9A C10U U43C | 0.04
26 | C8G C15A A16C U28G G29U G35A G36C | 0.02
27 | C8A A26U G30A G33C | 0.11
28 | C8G U9A U20A G27C | 0
29 | C8G A24C U28A | 0.02
30 | C8G G17A G33A G44A | 0.05
31 | C8G C13U C15U G22A U32G | 0.01
32 | C8A U34G C42A | 0.3
33 | C8G A16U G19C A24C | 0.06
34 | C8G C18U A24U A39G | 0.05
35 | C8G C37G C42G | 0.02
36 | C8A C10A A11U C15U A26C G40A G44U | 0.01
37 | C8G C10G C13A G22A | 0.03
38 | C8A C10A A39U | 0
39 | C8A A26C C31U | 0.19
40 | C8A G29C A39U | 0.03
41 | C8G A11G A16G G22C | 0.02
42 | C8A C13A G22A C31G | 0.31

Row | Variant | self-cleavage
43 | C8U A11C C37A | 0.01
44 | C8A C13A G40U C46U | 0.57
45 | C8G C13U U28C G33A C46G | 0.01
46 | C8G A26U C37A | 0.13
47 | C8A C13A C23U G27C G44U | 0.34
48 | C8G A25U G35C C45U | 0.02
49 | C8G A12C C13A U32C A39U | 0.01
50 | C8A G21C C23A G29U U34A | 0.49
51 | C8U A11G G21C C23U G35A | 0.03
52 | C8G G22U G29C A39C | 0.01
53 | C8A C18A A24G | 0.11
54 | C8A C13A G27C | 0.1
55 | C8A C13G U34C C37G | 0.04
56 | C8A U9C A12C G44C | 0.06
57 | C8G A16U A24G A25U G35A C37A C42U | 0.1
58 | C8G G30U U32G G36U | 0.28
59 | C8U A11U A12C C15A | 0
60 | C8G U9A C18G G21A | 0.12
61 | C8G G27U A39U | 0.02
62 | C8G A26C G40U G44A | 0.01
63 | C8G C15A G36A G44U | 0.1

Row | Variant | self-cleavage
64 | C8G G36C U43G | 0
65 | C8G U9C A41G U43A | 0.02
66 | C8G C23A G29U U34A | 0.07
67 | C8A G22A A26U U28G U43G | 0.61
68 | C8G G21U G30C C37A | 0.07
69 | C8A C23U A26U G33A G40U | 0.17
70 | C8G G33U C37A | 0.07
71 | C8G G27U U28G G40U | 0.04
72 | C8A C10G C42G U43G G44C C45U | 0.03
73 | C8G A14C G35C | 0.02
74 | C8G G33A C37U C42U | 0.03
75 | C8G C42G U43A | 0.02
76 | C8A C15U U38A C45A | 0.34
77 | C8G G27C C45A | 0
78 | C8U A11C G30C | 0
79 | C8A G21A A26G G29C | 0.08
80 | C8G G17A A24C | 0.07
81 | C8A U28A C42G U43A | 0.07
82 | C8G C42U G44U | 0.28
83 | C8A A16U G35U A41U | 0.02
